# Test results: the supplement of paper PMC8728848
# The list shows a part of the results.
# Tests used:
# Experiment in all cases: glycan array binding signal (z-score within array); higher = stronger binding
# Conditions in all cases: glycan notation: IUPAC condensed, linker removed
# [1] = target: Neu5Ac(a2-3)Gal
# Procedure, shortened: (§1)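 Negative Z-scores can be read as non-binding. The Z-score is calculated within each array and then averaged across arrays of one protein sequence at different concentrations or buffers and across linkers. Arrays, 3228 in all, were curated from the Consortium for Functional Glycomics database and kept only where the protein sequence was available.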
# [2] = target: Neu5Ac(a2-3)Gal(b1-3)GalNAc
# Procedure, shortened: as §1
# [3] = target: Neu5Ac(a2-3)Gal(b1-3)GalNAc(b1-3)Gal(a1-4)Gal(b1-4)Glc
# Procedure, shortened: as §1
# [4] = target: Neu5Ac(a2-3)Gal(b1-3)GalNAc(b1-3)Gal(b1-4)GlcNAc
# Procedure, shortened: as §1
# [5] = target: Neu5Ac(a2-3)Gal(b1-3)GalNAc(b1-4)[Neu5Ac(a2-3)]Gal(b1-4)Glc
# Procedure, shortened: as §1
# [6] = target: Neu5Ac(a2-3)Gal(b1-3)GalNAc6S
# Procedure, shortened: as §1
# [7] = target: Neu5Ac(a2-3)Gal(b1-3)GlcNAc
# Procedure, shortened: as §1
# [8] = target: Neu5Ac(a2-3)Gal(b1-3)GlcNAc(b1-3)Gal(b1-3)GlcNAc
# Procedure, shortened: as §1
# [9] = target: Neu5Ac(a2-3)Gal(b1-3)GlcNAc6S
# Procedure, shortened: as §1
# [10] = target: Neu5Ac(a2-3)Gal(b1-3)[Fuc(a1-4)]GlcNAc
# Procedure, shortened: as §1
# [11] = target: Neu5Ac(a2-3)Gal(b1-3)[Fuc(a1-4)]GlcNAc(b1-3)Gal(b1-3)[Fuc(a1-4)]GlcNAc
# Procedure, shortened: as §1
# [12] = target: Neu5Ac(a2-3)Gal(b1-3)[Fuc(a1-4)]GlcNAc(b1-3)Gal(b1-4)[Fuc(a1-3)]GlcNAc
# Procedure, shortened: as §1
# [13] = target: Neu5Ac(a2-3)Gal(b1-3)[Neu5Ac(a2-3)Gal(b1-4)]GlcNAc
# Procedure, shortened: as §1
# [14] = target: Neu5Ac(a2-3)Gal(b1-3)[Neu5Ac(a2-6)]GalNAc
# Procedure, shortened: as §1
# [15] = target: Neu5Ac(a2-3)Gal(b1-4)Glc
# Procedure, shortened: as §1
# [16] = target: Neu5Ac(a2-3)Gal(b1-4)GlcNAc
# Procedure, shortened: as §1
# [17] = target: Neu5Ac(a2-3)Gal(b1-4)GlcNAc(b1-2)Man(a1-3)[GlcNAc(b1-2)Man(b1-4)GlcNAc(b1-2)Man(a1-6)]Man(b1-4)GlcNAc(b1-4)GlcNAc
# Procedure, shortened: as §1
# [18] = target: Neu5Ac(a2-3)Gal(b1-4)GlcNAc(b1-2)Man(a1-3)[Neu5Ac(a2-6)Gal(b1-4)GlcNAc(b1-2)Man(a1-6)]Man(b1-4)GlcNAc(b1-4)GlcNAc
# Procedure, shortened: as §1
# [19] = target: Neu5Ac(a2-3)Gal(b1-4)GlcNAc(b1-3)Gal(b1-3)GlcNAc
# Procedure, shortened: as §1
# [20] = target: Neu5Ac(a2-3)Gal(b1-4)GlcNAc(b1-3)Gal(b1-4)GlcNAc
# Procedure, shortened: as §1
# [21] = target: Neu5Ac(a2-3)Gal(b1-4)GlcNAc(b1-3)Gal(b1-4)GlcNAc(b1-3)Gal(b1-4)GlcNAc
# Procedure, shortened: as §1
# [22] = target: Neu5Ac(a2-3)Gal(b1-4)GlcNAc(b1-3)Gal(b1-4)[Fuc(a1-3)]GlcNAc
# Procedure, shortened: as §1
# [23] = target: Neu5Ac(a2-3)Gal(b1-4)GlcNAc(b1-3)GalNAc
# Procedure, shortened: as §1
# [24] = target: Neu5Ac(a2-3)Gal(b1-4)GlcNAc(b1-6)[Gal(b1-3)]GalNAc
# Procedure, shortened: as §1
# [25] = target: Neu5Ac(a2-3)Gal(b1-4)GlcNAc(b1-6)[Neu5Ac(a2-3)Gal(b1-3)]GalNAc
# Procedure, shortened: as §1
# [26] = target: Neu5Ac(a2-3)Gal(b1-4)GlcNAc6S
# Procedure, shortened: as §1
# [27] = target: Neu5Ac(a2-3)Gal(b1-4)[Fuc(a1-3)]GlcNAc
# Procedure, shortened: as §1
# [28] = target: Neu5Ac(a2-3)Gal(b1-4)[Fuc(a1-3)]GlcNAc(b1-3)Gal
# Procedure, shortened: as §1
# [29] = target: Neu5Ac(a2-3)Gal(b1-4)[Fuc(a1-3)]GlcNAc(b1-3)Gal(b1-4)GlcNAc
# Procedure, shortened: as §1
# [30] = target: Neu5Ac(a2-3)Gal(b1-4)[Fuc(a1-3)]GlcNAc(b1-3)Gal(b1-4)[Fuc(a1-3)]GlcNAc(b1-3)Gal(b1-4)[Fuc(a1-3)]GlcNAc
# Procedure, shortened: as §1
# [31] = target: Neu5Ac(a2-3)Gal(b1-4)[Fuc(a1-3)]GlcNAc(b1-3)GalNAc
# Procedure, shortened: as §1
# [32] = target: Neu5Ac(a2-3)Gal(b1-4)[Fuc(a1-3)]GlcNAc(b1-6)[Gal(b1-3)]GalNAc
# Procedure, shortened: as §1
# [33] = target: Neu5Ac(a2-3)Gal(b1-4)[Fuc(a1-3)]GlcNAc(b1-6)[Neu5Ac(a2-3)Gal(b1-3)]GalNAc
# Procedure, shortened: as §1
# [34] = target: Neu5Ac(a2-3)Gal(b1-4)[Fuc(a1-3)]GlcNAc6S
# Procedure, shortened: as §1
# [35] = target: Neu5Ac(a2-3)Gal6S(b1-4)GlcNAc
# Procedure, shortened: as §1
# [36] = target: Neu5Ac(a2-3)Gal6S(b1-4)[Fuc(a1-3)]GlcNAc
# Procedure, shortened: as §1
# [37] = target: Neu5Ac(a2-3)GalNAc
# Procedure, shortened: as §1
# [38] = target: Neu5Ac(a2-3)GalNAc(b1-4)GlcNAc
# Procedure, shortened: as §1
# [39] = target: Neu5Ac(a2-3)[GalNAc(b1-4)]Gal(b1-4)Glc
# Procedure, shortened: as §1
# [40] = target: Neu5Ac(a2-3)[GalNAc(b1-4)]Gal(b1-4)GlcNAc
# Procedure, shortened: as §1
# [41] = target: Neu5Ac(a2-3)[Neu5Ac(a2-6)]GalNAc
# Procedure, shortened: as §1
# [42] = target: Neu5Ac(a2-6)Gal
# Procedure, shortened: as §1
binder,measurement,setting,value
"GIINTLQKYYCRVRGGRCAVLSCLPKEEQIGKCSTRGRKCCRRKK [Beta-Defensin 3 (Homo sapiens), P81534]",glycan array binding signal (z-score),[1],0.489
same,glycan array binding signal (z-score),[2],-0.221
same,glycan array binding signal (z-score),[3],-0.407
same,glycan array binding signal (z-score),[4],-0.523
same,glycan array binding signal (z-score),[5],-0.555
same,glycan array binding signal (z-score),[6],1.18
same,glycan array binding signal (z-score),[7],-0.304
same,glycan array binding signal (z-score),[8],-0.563
same,glycan array binding signal (z-score),[9],-0.526
same,glycan array binding signal (z-score),[10],-0.248
same,glycan array binding signal (z-score),[11],-0.364
same,glycan array binding signal (z-score),[12],-0.338
same,glycan array binding signal (z-score),[13],-0.604
same,glycan array binding signal (z-score),[14],-0.172
same,glycan array binding signal (z-score),[15],-0.426
same,glycan array binding signal (z-score),[16],-0.401
same,glycan array binding signal (z-score),[17],-0.608
same,glycan array binding signal (z-score),[18],-0.484
same,glycan array binding signal (z-score),[19],-0.501
same,glycan array binding signal (z-score),[20],-0.613
same,glycan array binding signal (z-score),[21],-0.664
same,glycan array binding signal (z-score),[22],-0.41
same,glycan array binding signal (z-score),[23],0.284
same,glycan array binding signal (z-score),[24],-0.341
same,glycan array binding signal (z-score),[25],-0.519
same,glycan array binding signal (z-score),[26],-0.781
same,glycan array binding signal (z-score),[27],-0.519
same,glycan array binding signal (z-score),[28],-0.497
same,glycan array binding signal (z-score),[29],-0.408
same,glycan array binding signal (z-score),[30],-0.613
same,glycan array binding signal (z-score),[31],0.787
same,glycan array binding signal (z-score),[32],-0.458
same,glycan array binding signal (z-score),[33],0.056
same,glycan array binding signal (z-score),[34],-0.797
same,glycan array binding signal (z-score),[35],-0.196
same,glycan array binding signal (z-score),[36],1.68
same,glycan array binding signal (z-score),[37],-0.526
same,glycan array binding signal (z-score),[38],-0.402
same,glycan array binding signal (z-score),[39],-0.361
same,glycan array binding signal (z-score),[40],-0.338
same,glycan array binding signal (z-score),[41],0.117
same,glycan array binding signal (z-score),[42],0.274
